Assay results published in patent US20100003267A1.

B1: Compound 6001 (protein, part only; not given: Ang2-binding peptide, part only)
light: ELQMTQSPSSLSASVGDRVTITCRSSQSLLHTYGSPYLNWYLQKPGQSPKLLIYKVSNRFSGVPSRFSGSGSGTDFTLTISSLQPEDFAVYFCSQGTHLPYTFGGGTKVEIKRTVAAPSVFIFPPSDEQLKSGTASVVCLLNNFYPREAKVQWKVDNALQSGNSQESVTEQDSKDSTYSLSSTLTLSKADYEKHKVYACEVTHQGLSSPVTKSFNRGEC
heavy: EVQLVESGGGLVQPGGSLRLSCAASGFTFSNYWMSWVRQSPEKGLEWVSEIRLRSDNYATHYAESVKGRFTISRDNSKNTLYLQMNSLRAEDTGIYYCKTYFYSFSYWGQGTLVTVSSASTKGPSVFPLAPSSKSTSGGTAALGCLVKDYFPEPVTVSWNSGALTSGVHTFPAVLQSSGLYSLSSVVTVPSSSLGTQTYICNVNHKPSNTKVDKRV[human IgG1 Fc left out here]
peptide: VEPNCDIHVMWEWECFERL
modifications: tethered at position 1; linker on a combining-site lysine (Lys 99)
B2: Compound 6010 (protein, part only; not given: Ang2-binding peptide, part only)
light: B1 light
heavy: B1 heavy
peptide: VEPNCDIHVKWEWECFERL
modifications: K10 = linking residue; linker on a combining-site lysine (Lys 99)

Molecular target: recombinant human VEGF165 (human) (UniProt P15692)
Chain of UniProt P15692 (P15692 other isoform, or with tags, fused parts or gaps limits assumed): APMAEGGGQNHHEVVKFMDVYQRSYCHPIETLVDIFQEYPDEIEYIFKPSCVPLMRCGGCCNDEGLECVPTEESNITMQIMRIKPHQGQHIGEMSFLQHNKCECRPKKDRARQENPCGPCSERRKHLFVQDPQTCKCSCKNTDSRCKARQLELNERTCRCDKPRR
Assay: competition ELISA: inhibits rhVEGF165 binding to coated VEGFR2/Fc

Binder | IC50 [nM]
B1 | 4
B2 | 344
